This note sets out measurements from PubChem BioAssay AID1745853 (National Center for Advancing Translational Sciences (NCATS), 2022).

Holding throughout (test): Primary Screen for Target Class Profiling of Small Molecule Inhibitors of Methyltransferases
Assay [1] has as its target Glycine N-methyltransferase (Homo sapiens) (UniProt Q14749). The following applies: purified enzyme, MTase-Glo SAH luminescence; measured here: GNMT inhibition; at 40 µM; stronger effect = lower value. The method in brief: (§1)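 Each enzyme was reacted with SAM and its substrate, with compounds tested once at 40 uM; SAH formed was read by MTase-Glo luminescence.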
The target of assay [2] is Guanidinoacetate N-methyltransferase (Homo sapiens) (UniProt Q14353). The following applies: purified enzyme, MTase-Glo SAH luminescence; measured here: GAMT inhibition; at 40 µM; stronger effect = lower value. The method in brief: as §1
Assay [3] concerns the target Histamine N-methyltransferase (Homo sapiens) (UniProt P50135). The following applies: purified enzyme, MTase-Glo SAH luminescence; measured here: HNMT inhibition; at 40 µM; stronger effect = lower value. The method in brief: as §1
The target of assay [4] is Nicotinamide N-methyltransferase (Homo sapiens) (UniProt P40261). The following applies: purified enzyme, MTase-Glo SAH luminescence; measured here: NNMT inhibition; at 40 µM; stronger effect = lower value. The method in brief:
as §1

Assay [5] deals with Phenylethanolamine N-methyltransferase (Homo sapiens) (UniProt P11086). The following applies: purified enzyme, MTase-Glo SAH luminescence; measured here: PNMT inhibition; at 40 µM; stronger effect = lower value. The method in brief: as §1

This is one part of the list. Further columns of the screen follow, without active or inactive calls.
On the % scale 0 is the no-effect control and ±100 the full control effect.

On to `c1ccc(-c2cc(CC3(NCC4CC4)COC3)no2)nc1`, for which the activity change, negative = inhibition in assay [1] was -3.66%; in assay [2], -3.58%; in assay [3] it was -0.027%; in assay [4], -10.7%; in assay [5], 5.4%.

For `Cc1cc(Nc2cccc(C(F)(F)F)c2)nc2ccc(NC(=O)c3ccc(=O)[nH]c3)cc12`, the activity change, negative = inhibition was found to be 13.5% in assay [2], 7.16% in assay [4] and 10.6% in assay [5].

`CCC1CCCCN1CCCNC(=O)c1cc2n(n1)CC(C)(C(=O)NC1CCCC1)N(C)C2=O` (stereo not drawn): the activity change, negative = inhibition in assay [1] is -4.41%; in assay [2] it was 0%; in assay [3], -4.63%; in assay [4], -6.72%; in assay [5] it was -2.51%.

Regarding `COc1ccc(CNC(=O)C(C)n2ccc3cc(S(=O)(=O)N4CCCC4)ccc32)cc1OC` (stereo not drawn), the activity change, negative = inhibition in assay [1] is -0.488%; in assay [2], 2.84%; in assay [3], 1.89%; in assay [4], -1.23%; in assay [5], -0.94%.

Turning to `O=C(CCc1nnc2n(Cc3ccccc3Cl)c(=O)c3ccccc3n12)N1CCN(c2ccccc2F)CC1`, the activity change, negative = inhibition in assay [1] was -6.27%; in assay [2], 4.65%; in assay [3], 4.74%; in assay [4] it was 2.8%; in assay [5] it was -0.406%.

On to `Cc1nc(CC(=O)NC(C)c2cnn(-c3ccccc3)c2C)cs1` (stereo not drawn), for which the activity change, negative = inhibition in assay [1] is 0.497%; in assay [2] it was 0.958%; in assay [3], 0.996%; in assay [4] it was 2.74%; in assay [5], 3%.

`COc1ccc(/C=C/c2nc(NCCCN(C)C)c3ccccc3n2)cc1`: the activity change, negative = inhibition was -9.51% in assay [1]; 2.02% in assay [2]; -58.5% in assay [3]; -15.8% in assay [4]; 3.34% in assay [5].

Consider `COc1cccc(CN2C(=O)c3cc4sccc4n3CC2(C)C(=O)NC2CCCC2)c1` (stereo not drawn), for which the activity change, negative = inhibition in assay [1] was -5.85%; in assay [2] it was 4%; in assay [3], -0.55%; in assay [4], -8.83%; in assay [5] it was -2.19%.

Consider `CCOc1ccccc1NC(=O)C1CCN(c2cnc3nccnc3c2)CC1`, for which the activity change, negative = inhibition in assay [1] was -3.13%; in assay [2] it was -4.48%; in assay [3] it was -2.89%; in assay [4] it was -2.99%; in assay [5], -14.9%.

Take `O=C(CCc1nnc2n(Cc3ccc(F)cc3)c(=O)c3ccccc3n12)N1CCN(c2ccccc2)CC1`: the activity change, negative = inhibition in assay [1] was -4.19%; in assay [2] it was 3.37%; in assay [3], -1.89%; in assay [4], -12.2%; in assay [5] it was -4.79%.

For `O=C(O)CC1CCC(c2ccc(-c3ccc4nc(C(=O)NCc5ccc(OC(F)(F)F)cc5)cn4c3)cc2)CC1` (stereo not drawn), the activity change, negative = inhibition in assay [1] is -1.14%; in assay [2] it was -9.79%; in assay [3], -3.53%; in assay [4] it was -15.9%; in assay [5], -8.38%.

Take `C[N+]1(C)[C@@H]2C[C@@H](OC(=O)C(O)(c3cccs3)c3cccs3)C[C@H]1[C@@H]1O[C@@H]12`: the activity change, negative = inhibition in assay [1] is 5.69%; in assay [2], 2.9%; in assay [3] it was 4.32%; in assay [4] it was -8.35%; in assay [5], -4.18%.

Consider `O=C(NCCCn1ccnc1)c1cc(-c2ccco2)on1`, for which the activity change, negative = inhibition was 4.78% in assay [1]; -1.82% in assay [2]; 3.42% in assay [3]; -11.3% in assay [4]; -0.818% in assay [5].

In the case of `COCc1nc(C2CCN(C(=O)NCC(C)C)C2)no1` (stereo not drawn), the activity change, negative = inhibition in assay [1] was -4.2%; in assay [2], -2%; in assay [3], -0.407%; in assay [4], -7.84%; in assay [5] it was -12.5%.

For the compound `Cc1cc(C)cc(NS(=O)(=O)c2ccc3[nH]c4c(c3c2)CCCC4)c1`, the activity change, negative = inhibition was -0.617% in assay [1]; 0% in assay [2]; -4.75% in assay [3]; -17.6% in assay [4]; 1.12% in assay [5].

Turning to `CC(C)CCn1c(=O)c2ccccc2n2c(CCC(=O)NCc3ccccc3Cl)nnc12`, the activity change, negative = inhibition in assay [1] was -8.78%; in assay [2] it was 0.485%; in assay [3], 6.14%; in assay [4] it was -8.05%; in assay [5] it was -12.7%.

Turning to `CCCCNC(=O)Cn1c(=O)oc2cc(S(=O)(=O)N3CC(C)CC(C)C3)ccc21` (stereo not drawn), the activity change, negative = inhibition in assay [1] is -0.239%; in assay [2], 0%; in assay [3], 5.1%; in assay [4], 1.88%; in assay [5], -9.23%.

Regarding `CC1CC(C)CN(C(=O)Cn2c(=O)oc3cc(S(=O)(=O)N4CC(C)CC(C)C4)ccc32)C1` (stereo not drawn), the activity change, negative = inhibition in assay [1] was -7.84%; in assay [2], 3.43%; in assay [3], 1.38%; in assay [4], -3.67%; in assay [5], -5.5%.

For `CCn1ccnc1CN(C)c1cc(C2CC(N)C2)nc(COC)n1` (stereo not drawn), the activity change, negative = inhibition was -7.59% in assay [1]; -15.8% in assay [2]; -13.5% in assay [3]; -17.2% in assay [4]; -6.27% in assay [5].

On to `Cc1c(Cl)cccc1NS(=O)(=O)c1ccc2[nH]c3c(c2c1)CCCC3`, for which the activity change, negative = inhibition was -5.96% in assay [1]; 1.54% in assay [2]; -4.59% in assay [3]; -28.3% in assay [4]; -2.8% in assay [5].

For the compound `CC1CCCCC1NC(=O)C1(C)Cn2c(cc3occc32)C(=O)N1Cc1ccccc1Cl` (stereo not drawn), the activity change, negative = inhibition in assay [1] was 5.53%; in assay [2], 0%; in assay [3], 5.93%; in assay [4] it was 3.63%; in assay [5] it was 2.23%.

In the case of `CC(C)(C)C(=O)Oc1ccc(S(=O)(=O)Nc2ccccc2C(=O)NCC(=O)O)cc1`, the activity change, negative = inhibition in assay [1] is 4.45%; in assay [2], 12.4%; in assay [3], 8.4%; in assay [4] it was -3.82%; in assay [5] it was 3.08%.

Regarding `CN1C(=O)c2cc(C(=O)NCCN3CCCCC3)nn2CC1(C)C(=O)NC1CCCCCC1` (stereo not drawn), the activity change, negative = inhibition in assay [1] turned out to be 4.35%; in assay [2], 0%; in assay [3] it was 0.28%; in assay [4], 9.77%; in assay [5], 0.734%.

Take `Cc1cc(C)c(-n2cc(C)c3c(Cl)nc(C)nc32)c(C)c1`: the activity change, negative = inhibition in assay [1] was 4.04%; in assay [2], -2.02%; in assay [3] it was 8.52%; in assay [4], -28.6%; in assay [5] it was -2.18%.

As to `CSc1ccc2c(c1)C(N1CCN(C)CC1)Cc1ccccc1S2` (stereo not drawn), the activity change, negative = inhibition in assay [1] is 9.47%; in assay [2] it was 11.9%; in assay [3], -0.762%; in assay [4] it was -73.2%; in assay [5], 0.757%.

Regarding `COc1ccc(OC)c2c1cc1n2CC(C)(C(=O)NC2CCCCC2C)N(Cc2ccco2)C1=O` (stereo not drawn), the activity change, negative = inhibition was -18.7% in assay [1]; -0.601% in assay [2]; -2.91% in assay [3]; -13.5% in assay [4]; -40% in assay [5].

As for `CCN(CC)CCCNC(=O)c1cc2n(n1)CC(C)(C(=O)NCc1ccc(F)cc1)N(C)C2=O` (stereo not drawn), the activity change, negative = inhibition is 1.03% in assay [1]; 3.95% in assay [2]; 0.302% in assay [3]; 3.4% in assay [4]; 2.51% in assay [5].

On to `CC(=O)OC[C@H]1O[C@H](O[C@]2(CO)O[C@H](CO)[C@@H](OC(=O)/C=C/c3ccccc3)[C@@H]2O)[C@H](O)[C@@H](O)[C@@H]1O`, for which the activity change, negative = inhibition in assay [1] was -3.01%; in assay [2], -2.71%; in assay [3], 11%; in assay [4], -15.5%; in assay [5], -9.24%.

With `C[C@@H](NC(=O)[C@@H]1C[C@@H](NS(=O)(=O)c2cccs2)CCN1C(=O)c1ccco1)C(N)=O`, the activity change, negative = inhibition is -5.27% in assay [1]; -5.07% in assay [2]; -1.13% in assay [3]; -13.1% in assay [4]; -7.05% in assay [5].

For the compound `Cn1cc(S(=O)(=O)c2ccc(Cl)cc2)c2cccc(N3CCNCC3)c21`, the activity change, negative = inhibition in assay [1] is -7.98%; in assay [2], 2.4%; in assay [3], -11.1%; in assay [4], -20.7%; in assay [5] it was -8.09%.
